Test results as given in ChEMBL document CHEMBL4888484, “Replenishing the malaria drug discovery pipeline: Screening and hit evaluation of the MMV Hit Generation Library 1 (HGL1) against asexual blood stage Plasmodium falciparum ,using a nano luciferase reporter read-out” (2022).
In all, about 150,000 compounds went through this assay and about 540 (0.36%) showed an effect of 50% or more. This is one part of the list.

Test system: Plasmodium falciparum
Assay: Primary screen in NF54 nanoGlo assay, in single point, at 2uM, 72h; a lower Z score goes with more inhibition
Type: functional, Erythrocyte
Settings: timepoint 72 hour

Row | SMILES | % Inhibition | Z score
1 | CN1CCCN(C(=O)c2ccc3nc(-c4ccc(F)cc4)cn3c2)CC1 | -10% | 0.91
2 | CC1(C)CCC(CNS(=O)(=O)c2ccco2)CC1 | -9% | 1.14
3 | CC1CCN(c2nc3c(c(N4CCCC4)n2)CN(C(=O)c2ccc(F)cc2F)CC3)CC1 | -8% | 1.11
4 | COc1cccc(-c2n[nH]c3c2CN(Cc2cccc(C)n2)CC3)c1 | -9% | 1.66
5 | Cc1cccc2sc(N3CC[C@@H]4OCC[C@@H]4C3)nc12 | -19% | 1.92
6 | Cc1nc2n(n1)CCN(c1ncc(C(F)(F)F)cc1Cl)C2 | -2% | 0.45
7 | CC(C)CCN1CCN(C(=O)COCCOc2ccccc2)CC1 | -8% | 1.6
8 | CCn1ncc2c1CCCC2NC(C)C(=O)N1CCC(C)CC1 (centres undefined) | -6% | 0.72
9 | Cc1ccccc1Cc1c(C(=O)N2CCCC2)c(=O)cc(C)n1Cc1ccccn1 | 4% | -0.51
10 | Cc1cc(CN(C)CC(=O)O)c(OC(F)F)cc1C | 2% | -0.28
11 | CC(=O)c1ccc(N2CCN(C(=O)C(=O)c3cccn3C)CC2)cc1 | -6% | 0.59
12 | CN(C)[C@H]1CCN(C(=O)Nc2ccccc2-c2ccccc2)C[C@H]1CCC(=O)O | 8% | -1.41
13 | C[C@@H](Cc1cc2ccccc2o1)NC(=O)CN1C(=O)CCC1=O | -11% | 1.88
14 | O=C1CCN(C(=O)N[C@H](c2ccc(F)cc2)C2CCCC2)CCN1 | -7% | 1.38
15 | COc1cc(-c2nc(C(=O)N(C)Cc3ccccc3)cs2)ccc1OCc1cccc(Cl)c1 | 6% | -0.71
16 | O=C(C1=Cc2ccccc2OC=C1)N1C[C@H]2CC[C@@H](C1)N(CC1CC1)C2 | -1% | 0.13
17 | O=C(CCCc1cn[nH]c1)N1CCC(c2cc(O)ncn2)CC1 | -11% | 1.1
18 | CCOC(=O)CC1(NC(=O)Nc2c(-c3cccnc3)[nH]c3ccc(F)cc23)CCCCC1 | -4% | 0.69
19 | CC(C)C1OCCCC1CNC(=O)c1ccc(-c2ncn[nH]2)cc1 (centres undefined) | -15% | 1.68
20 | Cc1oc(Br)cc1C(=O)N1CCCC[C@H]1c1nc(=O)[nH][nH]1 | -13% | 1.77
21 | CC(C)CN1C[C@H](OCc2cccnc2)CN(C(=O)c2cscn2)CC1=O | 0% | 0.06

Row | SMILES | % Inhibition | Z score
22 | Cc1nn(C)c(C)c1[C@@H](OC(=O)c1ccncc1F)C(F)(F)F | -3% | 0.39
23 | CC1CCN(S(=O)(=O)NCc2ccnc(N3CCN(c4ccc(F)cc4)CC3)c2)CC1 | 3% | -0.51
24 | Cc1ccc(NS(=O)(=O)c2cc(C(=O)N3CCC(C)CC3)n(C)c2C)cc1Cl | -1% | 0.11
25 | COCCN(CC(=O)N(Cc1cccn1Cc1ccccc1)C1CCCCC1)C(=O)C(C)C | -15% | 1.78
26 | O=C(c1ccc2[nH]nnc2c1)N1CCN(c2cnccn2)CC1 | -5% | 0.92
27 | COc1ccccc1C1(CNc2ncccc2C#N)CCOCC1 | 4% | -0.54
28 | COc1ccc(-c2noc(CCN(C(=O)Cc3ccc(F)cc3)C(C)C)n2)cc1OC | -9% | 1.72
29 | CC(C)[C@H](NC(=O)c1ccco1)C(=O)N1CCC1 | -3% | 0.26
30 | CN[C@@H]1c2ccccc2N(C(=O)OC(C)(C)C)C[C@H]1O | -11% | 1.27
31 | COCCN[C@H]1[C@@H]2OC[C@@H](O2)[C@@H](NCc2ccc(F)cc2)[C@@H]1O | -6% | 0.98
32 | C[C@@H]1CN(c2cc([C@H]3C[C@@H](O)C3)ncn2)C[C@H](C)O1 | 5% | -0.4
33 | O=C([C@H]1CC(=O)N(C2CCCC2)C1)N1CCc2sccc2C1 | -8% | 1.29
34 | COCCNC(=O)N(CCc1cccc(F)c1)C1CC1 | -8% | 1.37
35 | CCC(=O)N1CCc2c(C(=O)Nc3ccc(OC)cc3OC)cccc21 | -9% | 1.07
36 | CCN1CCC2CCC(C1)N2C(=O)c1ccc(-c2ccc(F)cc2)cc1F (centres undefined) | -6% | 0.64
37 | Cc1cncc(CN2CCO[C@H](c3ccc(OC(F)F)cc3)C2)c1 | -4% | 0.54
38 | CN(CC(=O)NC1CCS(=O)(=O)C1)C1C=CCCCCC1 (centres undefined) | -12% | 1.36
39 | Cc1nnc2c(=O)n(CC(=O)NCC(C)C)c3cccnc3n12 | -12% | 1.6
40 | COc1cc(OC)c(C(=O)N2C[C@H]3C[C@H](O)[C@@H](O)C[C@H]3C2)cc1OC | 2% | -0.25
41 | Cc1cnc(C(F)(F)F)c(C(=O)O)c1 | -7% | 1.31
42 | COc1ccc(C2C3C(=O)N(c4cccc5ccccc45)C(=O)C3ON2c2ccccc2)c(OC)c1OC (centres undefined) | 0% | 0.05
